The target of one assay is T1, BD-EXO70E2 (Arabidopsis) (UniProt Q9FNR3).
T1 sequence: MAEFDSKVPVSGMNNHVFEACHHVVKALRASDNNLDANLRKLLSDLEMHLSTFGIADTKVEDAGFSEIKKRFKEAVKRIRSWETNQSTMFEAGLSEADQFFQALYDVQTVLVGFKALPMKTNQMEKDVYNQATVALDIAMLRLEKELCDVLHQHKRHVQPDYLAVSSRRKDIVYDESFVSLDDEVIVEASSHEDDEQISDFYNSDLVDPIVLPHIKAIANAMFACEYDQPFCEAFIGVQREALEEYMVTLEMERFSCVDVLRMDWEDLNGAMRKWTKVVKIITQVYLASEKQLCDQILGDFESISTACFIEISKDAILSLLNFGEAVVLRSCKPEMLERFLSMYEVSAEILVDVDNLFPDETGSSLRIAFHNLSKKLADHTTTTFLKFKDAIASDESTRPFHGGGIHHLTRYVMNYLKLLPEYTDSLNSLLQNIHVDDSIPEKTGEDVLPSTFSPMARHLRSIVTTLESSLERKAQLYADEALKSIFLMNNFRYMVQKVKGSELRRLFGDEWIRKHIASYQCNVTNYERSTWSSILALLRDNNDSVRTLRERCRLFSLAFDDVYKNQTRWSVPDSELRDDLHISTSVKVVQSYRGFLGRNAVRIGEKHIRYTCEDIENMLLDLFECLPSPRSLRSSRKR
Kind of assay: two-hybrid; bait in pGBKT7, prey in pGADT7, Gold Yeast Y2H; growth on SD/(-Trp-Leu-His-Ade) (QDO) medium for 3 days.

Another assay concerns the target T2, EXO70E2-YC (Arabidopsis) (UniProt Q9FNR3).
T2 sequence: T1 sequence
The assay can be described thus: split reporter; BiFC with YFP halves, vectors co-transformed into Arabidopsis protoplasts for 18 h; confocal microscopy.

Assay [1] has as its target T3, MBP-EXO70E2-6His (Arabidopsis) (UniProt Q9FNR3).
T3 sequence: T1 sequence
Kind of assay: pull-down; MBP-BOI-HA incubated with MBP-6His or MBP-EXO70E2-6His and Ni-NTA agarose beads, 2–3 h at 4 °C; beads washed 6–10 times; anti-HA immunoblot. (In general: Immunoblotting shows a protein as a band on a membrane.)

These are yes or no findings as the source states them, for the method shown. For part of these data: Binding seen in cells or lysates may run through a third protein. Some results given as binding are weak or reduced against the parent protein; the word gives no strength. For part of these data: Tags and fused reporters may be left off the sequences shown.

B1: AD-BOI (protein, UniProt O81851 1-304)
chain: MAVQAHHMNIFSQFISPNRDCVKFQENMNHGEFEFTGGEVPLITGESFAVEPLAAKANFNKAESGLSYNFTVPPLSTKRQRDFQFSDSNAPVKRRSVAFDSSSPSLINVELVSQIQNQQQSEIDRFVAQQTEKLRIEIEARQQTQTRMLASAVQNVIAKKLKEKDDEIVRIRNLNWVLQERVKSLYVENQIWRDIAQTNEANANTLRTNLDQVLAQLETFPTASAVVEDDAESSCGSCCGDGGGEAVTAVGGGCKRCGEREASVLVLPCRHLCLCTVCGGSALLRTCPVCDMVMNASVHVNMSS
On to B1, for which the binding result in the assay with BD-EXO70E2 (Arabidopsis) is “binds”.

B2: BOI-YN (protein, UniProt O81851 1-304)
chain: B1 chain
B2: the binding result with EXO70E2-YC (Arabidopsis) is recorded as “binds”.

B3: MBP-BOI-HA (protein, UniProt O81851 1-304)
chain: B1 chain
Take B3: the binding entry in assay [1] is recorded as “binds”.

B4: BRG2 (in pGADT7) (protein, UniProt F4IDI6 1-358)
chain: MAVDAHHLFLSPPQLFSNRELTMNNNTMEPTSGGFCNNNQTGYGVVSPFSVPNHTSTTTTATPPLLHVYGGSDTIPTTAGYYADGATNLDCEFFPLPTRKRSRDSSRSNYHHLLLQNPRSSSCVNAATTTTTTTLFSFLGQDIDISSHMNQQQHEIDRFVSLHLYQMERVKYEIEEKRKRQARTIMEAIEQGLVKRLRVKEEERERIGKVNHALEERVKSLSIENQIWRDLAQTNEATANHLRTNLEHVLAQVKDVSRGAGLEKNMNEEDDAESCCGSSCGGGGEETVRRRVGLEREAQDKAERRRRRMCRNCGEEESCVLLLPCRHLCLCGVCGSSVHTCPICTSPKNASVHVNMSS
For B4, in the assay with BD-EXO70E2 (Arabidopsis), the binding result is given as “binds”.

B5: BOI fragment containing only the RING domain (230–304 aa) (domain or fragment, UniProt O81851 230-304)
chain: DAESSCGSCCGDGGGEAVTAVGGGCKRCGEREASVLVLPCRHLCLCTVCGGSALLRTCPVCDMVMNASVHVNMSS
Turning to B5, the binding result in the assay with BD-EXO70E2 (Arabidopsis) is on record as “no binding”.

B6: BRG3 (in pGADT7) (protein, UniProt Q9LDD1 1-335)
chain: MAVEAHHLNPLFSSNREMIHPVEASGVVYNTQMRYGTVPTFNPTVECQTSLFNPIYNISPVDRLVHQSMKPTIQSVDSSLTFNSDNNVDFLRPVSSRKRSREESVVLNPSAYMQIQKNPTDPLMFLGQDLSSNVQQHHFDIDRLISNHVERMRMEIEEKRKTQGRRIVEAVEQGLMKTLRAKDDEINHIGKLNLFLEEKVKSLCVENQIWRDVAQSNEATVNALRSNLQQVLAAVERNRWEEPPTVADDAQSCCGSNDEGDSEEERWKLAGEAQDTKKMCRVGMSMCRSCGKGEASVLLLPCRHMCLCSVCGSSLNTCPICKSPKTASLHVNLSS
As for B6, in the assay with BD-EXO70E2 (Arabidopsis), the binding entry is given as “binds”.

B7: BOI N-terminal (1–150 aa) (domain or fragment, UniProt O81851 1-150)
chain: MAVQAHHMNIFSQFISPNRDCVKFQENMNHGEFEFTGGEVPLITGESFAVEPLAAKANFNKAESGLSYNFTVPPLSTKRQRDFQFSDSNAPVKRRSVAFDSSSPSLINVELVSQIQNQQQSEIDRFVAQQTEKLRIEIEARQQTQTRMLA
As for B7, the binding result with BD-EXO70E2 (Arabidopsis) is given as “no binding”.

B8: BOI RING domain deficient fragment (1–229 aa) (domain or fragment, UniProt O81851 1-229)
chain: MAVQAHHMNIFSQFISPNRDCVKFQENMNHGEFEFTGGEVPLITGESFAVEPLAAKANFNKAESGLSYNFTVPPLSTKRQRDFQFSDSNAPVKRRSVAFDSSSPSLINVELVSQIQNQQQSEIDRFVAQQTEKLRIEIEARQQTQTRMLASAVQNVIAKKLKEKDDEIVRIRNLNWVLQERVKSLYVENQIWRDIAQTNEANANTLRTNLDQVLAQLETFPTASAVVED
For the molecule B8, the binding result with BD-EXO70E2 (Arabidopsis) is on record as “binds”.

B9: BOI C-terminal (151–304 aa) (domain or fragment, UniProt O81851 151-304)
chain: SAVQNVIAKKLKEKDDEIVRIRNLNWVLQERVKSLYVENQIWRDIAQTNEANANTLRTNLDQVLAQLETFPTASAVVEDDAESSCGSCCGDGGGEAVTAVGGGCKRCGEREASVLVLPCRHLCLCTVCGGSALLRTCPVCDMVMNASVHVNMSS
On to B9, for which the binding result in the assay with BD-EXO70E2 (Arabidopsis) is on record as “binds”.

The record behind these values is paper PMC11432932.
